# In all, about 310,000 compounds went through this assay and about 14,000 (4.5%) showed an effect of 50% or more. The effect is printed as a negative number. This is one part of the list.
# Target: human ether-à-go-go-related gene (hERG) potassium channel (human, UniProt Q12809)
# Test: primary screen, population patch clamp on CHO cells stably expressing hERG
# 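Also: peak tail current of the secondary pulse compared with the same well before compound.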
# human ether-à-go-go-related gene (hERG) potassium channel, sequence (Q12809 whole entry, looked up): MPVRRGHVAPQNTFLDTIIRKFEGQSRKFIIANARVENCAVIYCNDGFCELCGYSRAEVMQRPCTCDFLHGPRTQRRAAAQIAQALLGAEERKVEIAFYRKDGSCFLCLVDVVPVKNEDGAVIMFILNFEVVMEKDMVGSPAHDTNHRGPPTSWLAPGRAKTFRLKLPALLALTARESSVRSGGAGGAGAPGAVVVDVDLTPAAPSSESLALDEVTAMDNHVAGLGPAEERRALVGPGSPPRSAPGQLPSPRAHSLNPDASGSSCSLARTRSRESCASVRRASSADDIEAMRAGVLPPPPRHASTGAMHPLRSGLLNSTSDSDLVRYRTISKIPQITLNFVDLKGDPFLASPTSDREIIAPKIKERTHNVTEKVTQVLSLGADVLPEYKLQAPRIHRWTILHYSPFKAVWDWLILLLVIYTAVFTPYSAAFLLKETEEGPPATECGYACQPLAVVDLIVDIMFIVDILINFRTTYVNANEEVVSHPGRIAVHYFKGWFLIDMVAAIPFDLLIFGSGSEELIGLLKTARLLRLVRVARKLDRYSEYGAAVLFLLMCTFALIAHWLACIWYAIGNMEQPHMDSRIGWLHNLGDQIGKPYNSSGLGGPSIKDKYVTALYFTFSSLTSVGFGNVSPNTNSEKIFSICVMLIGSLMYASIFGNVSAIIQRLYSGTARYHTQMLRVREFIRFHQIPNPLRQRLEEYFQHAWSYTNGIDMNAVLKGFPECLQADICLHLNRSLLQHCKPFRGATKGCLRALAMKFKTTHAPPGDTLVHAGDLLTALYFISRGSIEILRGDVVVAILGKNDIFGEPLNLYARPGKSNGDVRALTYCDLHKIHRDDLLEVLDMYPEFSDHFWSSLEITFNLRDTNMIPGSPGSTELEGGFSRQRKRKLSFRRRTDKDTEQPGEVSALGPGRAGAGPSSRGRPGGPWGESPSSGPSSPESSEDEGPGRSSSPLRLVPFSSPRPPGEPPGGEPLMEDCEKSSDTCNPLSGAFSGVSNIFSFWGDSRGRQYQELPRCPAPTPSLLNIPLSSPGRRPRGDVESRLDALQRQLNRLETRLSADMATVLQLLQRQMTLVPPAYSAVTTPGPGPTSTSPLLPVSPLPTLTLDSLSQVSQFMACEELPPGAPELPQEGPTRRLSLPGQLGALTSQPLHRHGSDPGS
row,SMILES,"hERG current change (%, negative = inhibition) at 10uM"
1,Cc1cc(C)nc(SCC(=O)Nc2ncc(Cc3cccc(Cl)c3)s2)n1,-11.6%
2,Cc1ccc(-n2ncc3c(=O)n(CC#N)cnc32)cc1C,1.53%
3,CC(C)(C)c1cc(N2CCOCC2)n2ncc(-c3ccccc3)c2n1,28.9%
4,CCOc1ccccc1N(C(=O)c1ccccc1Cl)C1=NC(C)(C)CS1,-2.51%
5,O=[N+]([O-])c1ccccc1C1Nc2cccc3cccc(c23)N1,11.8%
6,O=C1CC(c2ccccc2)c2ccccc21 (stereo not drawn),8.78%
7,CCC(C)NC(=O)Cn1c(=O)n(-c2ccc(OC)cc2)c(=O)c2ccc(C(=O)NCc3ccc(C)cc3)cc21 (stereo not drawn),17.5%
8,O=C1CCC(CCC(=O)N2CCCC(C(=O)c3ccc(Cl)cc3)C2)=NN1 (stereo not drawn),-19.1%
9,O=S(=O)(Nc1ccc(S(=O)(=O)N2CCCCCC2)cc1)c1cccs1,-4.41%
10,CCc1cccc(N(C)C(N)=Nc2cccc3ccccc23)c1.Cl,8.33%
11,Cc1ccc(S(=O)(=O)n2c(CN3CCCC(C)C3)nc3ccccc32)cc1 (stereo not drawn),-14.6%
12,CN1C(=O)c2ccccc2OC1(C)Cc1ccccc1 (stereo not drawn),11.3%
13,CCOC(=O)Nc1cc(C)ccc1OC,11.2%
14,Nc1nc(OCC2CCCCC2)c2[nH]cnc2n1,-11.2%
15,CC(=O)c1ccc(N2CCN(C(=O)c3nn(C)c4c3CS(=O)(=O)c3ccccc3-4)CC2)cc1,-64.5%
16,CCC(C)C(=O)Nc1nnc(-c2cccs2)s1 (stereo not drawn),-0.158%
17,CC(=O)Nc1ccc(S(=O)(=O)N2CCC(C(=O)NCCc3c[nH]c4ccccc34)CC2)cc1,12.4%
18,CCN(Cc1ccccc1)C(c1ccc(C)cc1)c1nnnn1C(C)(C)CC (stereo not drawn),-1.41%
19,C=CCOc1cccc(C2c3c(oc4ccc(F)cc4c3=O)C(=O)N2CCCN2CCOCC2)c1 (stereo not drawn),-12.1%
20,COc1cccc(NC(=O)c2oc3ccccc3c2NC(=O)C(C)(C)C)c1,2.84%
21,COCCNC(=O)c1cc(C)ccc1C,-1.88%
22,Cc1cccc(NC(=O)CCS(=O)(=O)c2ccc3c(c2)oc(=O)n3C)c1,17.9%
23,O=C(NC(=S)Nn1cnnc1)c1ccc(F)cc1Cl,20.1%

row,SMILES,"hERG current change (%, negative = inhibition) at 10uM"
1,Cc1ccccc1N(CC(=O)NCCSC1CCCCC1)S(=O)(=O)c1ccccc1,-16%
2,Clc1ccc(-c2nc3ccncc3[nH]2)cc1,-17.3%
3,C=CCNC(=O)C1CCN(S(=O)(=O)c2ccc3ccccc3c2)CC1,-2.93%
4,CC1CCCCN1Cc1nc2c(c(=O)n(C)c(=O)n2C)n1CCCc1ccccc1 (stereo not drawn),-6.01%
5,CC(=O)NC1=NN(C(C)=O)C(C)(c2ccco2)S1 (stereo not drawn),14.6%
6,CCc1ccc(NC(=O)N(CCN2CCOCC2)C2CCN(C(C)=O)CC2)cc1,7.54%
7,O=C(NCCC(=O)N1CCC2(CC1)NCCc1[nH]cnc12)c1cccc(Cl)c1,18.1%
8,COCC(C)n1c(SCc2cc(C(=O)OC)c(C)o2)nc2ccccc2c1=O (stereo not drawn),4.04%
9,CC(=O)Nc1ccc(NC(=O)C(C)Sc2n[nH]c(-c3ccc(C)cc3)n2)cc1 (stereo not drawn),-4.81%
10,CCCCCC#CCN1CCN(C23CC4CC(CC(C4)C2)C3)CC1,-58.6%
11,CCN1CCCC1CN(Cc1cc2ccc(C)cc2[nH]c1=O)C(=S)Nc1ccccc1C(=O)OC (stereo not drawn),-85.2%
12,S=C(N/N=C/c1ccc(Br)cc1)N1CCCCC1,13.7%
13,O=C(Cc1ccc(Cl)cc1)Nc1ccc(S(=O)(=O)N2CCOCC2)cc1,-23.6%
14,O=C(OC(C(=O)NCc1ccc(F)cc1)c1ccccc1)c1ccco1 (stereo not drawn),14.4%
15,CCCCn1c(N)c(N(CCOC)C(=O)c2ccc(Br)s2)c(=O)[nH]c1=O,-6.46%
16,COc1ccc(C(CNC(=O)CCc2ccsc2)N(C)C)cc1 (stereo not drawn),-18%
17,COc1ccc(CCNC(=O)c2cccc(Br)c2)cc1OC,8.56%
18,Cc1ccc(-n2c(SCC(=O)N3CCOCC3)nnc2-c2ccncc2)cc1,5.92%
19,O=C(c1ccc([N+](=O)[O-])cc1)N(Cc1ccc(Cl)cc1Cl)N1C(=O)CCCC1=O,-6.85%
20,O=C1[C@H]2CC3C=CC2(O3)[C@@H]2OCCCN12 (stereo partly drawn),10.2%
21,Cc1onc(-c2c(Cl)cccc2Cl)c1C(=O)N1CCc2ccccc2C1,5.35%
22,Cc1n[nH]c(C)c1CCOc1ccc(C(C)C)cc1.Cl,3.59%
23,CCOC(=O)CN(C(=O)CSc1nnc(CNc2ccc(F)cc2)n1C)c1ccccc1,-28.6%

row,SMILES,"hERG current change (%, negative = inhibition) at 10uM"
1,COc1ccccc1N1CCN(/N=C/c2c(C)nn(-c3ccccc3)c2C)CC1,-25.1%
2,Cc1nc(SCCCSc2n[nH]c(C)n2)n[nH]1,15.7%
3,CC1Cc2ccccc2N1CC(=O)NC(=O)NCc1ccco1 (stereo not drawn),-8.47%
4,COC(=O)c1ccc(C(=O)Nc2ccc(F)cc2)cc1,1.29%
5,CCCCC(=O)Nc1ccc(S(=O)(=O)Nc2nccc(C)n2)cc1,-26.6%
6,ON=Cc1cccn1-c1ccccc1,9.05%
7,CN(C)C(=O)c1c(NC(=O)c2ccco2)sc2c1CCCCC2,3.91%
8,CCCc1cc(=O)[nH]c(SCC(=O)NN(c2ccccc2)c2ccccc2)n1,-1.04%
9,COc1ccc(N2CCN(c3cc(C)nc4ccc(OC)cc34)CC2)cc1,-69.1%
10,CCCn1c(N)c(Sc2ccc(C)cc2)c(=O)n(CCC)c1=O,-14.3%
11,NC(=O)c1nsc(C(=O)N(CC(=O)NCc2ccc3c(c2)OCO3)C2CCCC2)c1N,-20.5%
12,CCc1ccc2nc(SCC(=O)Nc3ccccc3N3CCOCC3)c(C#N)cc2c1,6.21%
13,COC(=O)c1c(C)oc2ccc(N(C(=O)c3ccncc3)S(=O)(=O)c3ccc4ccccc4c3)cc12,8.21%
14,COc1cc(NC(C)=O)ccc1NC(=O)c1cc2ccccc2o1,9.05%
15,CCN(CC)CCn1c(=N)n(CC(O)COc2cccc(C)c2)c2ccccc21.Cl (stereo not drawn),-65.2%
16,N#CC(c1ccccc1)c1cnccn1 (stereo not drawn),4.13%
17,Cc1ccccc1OCCn1ccnc1,9.63%
18,COc1ccc2oc(C(=O)C3CC3)c(N)c2c1,-0.711%
19,CCOC(=O)C1CCN(C(=S)NC(=O)c2cccs2)CC1,26.4%
20,C=C(C)COc1ccc(-c2ncncc2-c2ccc(OC)cc2)c(O)c1,-11.5%
21,COC(=O)c1cc(C(=O)OC)cc(-n2c(C)cc(C(=O)CC#N)c2C)c1,-31.2%
22,COc1ccccc1-n1cnnc1SCC(=O)c1ccc[nH]1,-0.89%
23,Nc1ccc(S(=O)(=O)NC2(C(F)(F)F)NC(=O)N(Cc3ccccc3)C2=O)cc1 (stereo not drawn),17.5%

row,SMILES,"hERG current change (%, negative = inhibition) at 10uM"
1,CCCC(=O)OCC(=O)Nc1cc([N+](=O)[O-])ccc1OC,7.17%
2,COc1ccc(N(C(=O)CNC(=O)c2cccs2)C(C(=O)NCC2CCCO2)c2ccc(OC)c(OC)c2)cc1 (stereo not drawn),13%
3,COCCCNC(=S)Nc1cccc(S(=O)(=O)NC2=NCCC2)c1,36.7%
4,C/[N+]([O-])=C1\Cc2ccccc2C1=O,3.94%
5,O=C(NNS(=O)(=O)c1ccc2ccccc2c1)NC1CCCCC1,10.6%
6,Cc1nc2ccc(NC(=O)c3cccc(S(=O)(=O)N(C)c4ccccc4)c3)cc2s1,-1.29%
7,Cc1ccc(C(=O)c2ccc(CC(=O)[O-])n2C)cc1.O.[Na+],12.9%
8,O=C(CSc1n[nH]c(-c2ccncc2)n1)Nc1ccc(F)cc1,3.25%
9,CC(C)c1nc(-c2c(N)n(C)c(=O)n(C)c2=O)sc1C(=O)C(C)(C)C,2.02%
10,O=S1(=O)CC(O)C(NCc2cccnc2)C1 (stereo not drawn),-2.69%
11,COc1cc(S(=O)(=O)N(Cc2ccc(C)cc2)C2CCCCC2)ccc1-n1cnnn1,-5.75%
12,C=CCON/C(CCC)=C1\C(=O)C(C(=O)OC)C(C)(C)CC1=NC (stereo not drawn),18.3%
13,COc1ccc(CN(C)CC(=O)Nc2ccccc2C(=O)NC2CC2)cc1,-25.7%
14,CCc1cccc(C)c1NC(=O)CSc1nc2ccc(N3C(=O)c4ccccc4C3=O)cc2s1,4.44%
15,Cc1c(C)[n+](=O)c2c(n1[O-])CCC2,-9.48%
16,O=C(COc1ccc(F)cc1Br)NCC1(N2CCOCC2)CCCCC1,-48.7%
17,O=C1CCCc2[nH]nc(-c3cccnc3)c21,8.35%
18,N#CCCn1cc(/C=C2\NC(=S)N(c3ccccc3)C2=O)c(-c2ccc(-c3ccccc3)cc2)n1,18.9%
19,CCC(NC(=S)NCc1ccc(F)cc1)c1ccc(C)cc1 (stereo not drawn),13.7%
20,O=C(Nc1ccc(Cl)cc1Cl)C1CCCO1 (stereo not drawn),3.31%
21,CN(C)C(CNC(=O)C1CCN(S(=O)(=O)c2cccc(C(F)(F)F)c2)CC1)c1ccccc1 (stereo not drawn),-21%

# From publication PMC4336329 (PLoS ONE, 2015)
